Source: article PMC4336329 (PLoS ONE, 2015)
Among all 310,000 compounds or so, about 2,200 (0.71%) showed an effect of 50% or more. The effect is printed as a negative number. Some of the results follow.

What follows are compounds tested against human ether-à-go-go-related gene (hERG) potassium channel (human, UniProt Q12809) (assay: primary screen, population patch clamp on CHO cells stably expressing hERG).
human ether-à-go-go-related gene (hERG) potassium channel, sequence (Q12809 whole entry, looked up): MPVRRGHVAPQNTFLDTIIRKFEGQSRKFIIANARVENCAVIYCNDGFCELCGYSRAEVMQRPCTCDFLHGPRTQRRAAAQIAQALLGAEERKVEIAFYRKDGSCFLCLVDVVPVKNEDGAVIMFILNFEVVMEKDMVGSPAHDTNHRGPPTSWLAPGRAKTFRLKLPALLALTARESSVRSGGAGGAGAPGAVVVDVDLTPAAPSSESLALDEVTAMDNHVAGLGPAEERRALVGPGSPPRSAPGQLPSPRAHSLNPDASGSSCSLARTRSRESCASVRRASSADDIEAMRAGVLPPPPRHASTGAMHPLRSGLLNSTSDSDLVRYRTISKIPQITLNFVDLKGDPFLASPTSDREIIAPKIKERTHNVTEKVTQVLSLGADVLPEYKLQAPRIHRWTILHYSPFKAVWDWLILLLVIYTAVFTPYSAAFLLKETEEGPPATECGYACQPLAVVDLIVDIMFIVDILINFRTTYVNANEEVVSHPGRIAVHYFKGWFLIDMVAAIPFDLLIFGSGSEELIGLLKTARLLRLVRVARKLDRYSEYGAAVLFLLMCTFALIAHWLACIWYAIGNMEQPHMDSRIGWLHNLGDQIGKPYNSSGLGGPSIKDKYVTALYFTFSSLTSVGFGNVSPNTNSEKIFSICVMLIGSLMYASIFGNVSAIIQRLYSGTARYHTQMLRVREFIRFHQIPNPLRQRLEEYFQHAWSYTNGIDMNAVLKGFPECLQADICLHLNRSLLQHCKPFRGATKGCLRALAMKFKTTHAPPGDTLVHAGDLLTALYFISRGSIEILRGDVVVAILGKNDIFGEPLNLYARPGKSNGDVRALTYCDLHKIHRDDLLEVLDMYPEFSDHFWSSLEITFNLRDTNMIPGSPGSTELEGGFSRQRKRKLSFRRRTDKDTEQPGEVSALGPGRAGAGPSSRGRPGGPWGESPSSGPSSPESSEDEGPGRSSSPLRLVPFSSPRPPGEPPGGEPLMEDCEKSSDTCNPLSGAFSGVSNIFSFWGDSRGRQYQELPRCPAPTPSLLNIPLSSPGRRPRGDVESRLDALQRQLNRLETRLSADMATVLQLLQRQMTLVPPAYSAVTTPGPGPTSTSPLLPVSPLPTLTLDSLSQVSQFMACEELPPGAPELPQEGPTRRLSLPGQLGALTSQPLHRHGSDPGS

Compound	hERG current change (%, negative = inhibition) at 1uM
CCOC(=O)C1CCN(C(=O)c2cc3cc(Cl)ccc3[nH]2)CC1	-1.34%
CC1CCCCN1S(=O)(=O)c1ccc(S(=O)(=O)N2CCCC2)cc1 (centres unmarked)	13.5%
Cc1nc2ccccc2n1CC(=O)N/N=C\c1ccccn1	8.64%
COc1ccc(-c2csc(N(CCCN(C)C)C(=O)c3ccccc3F)n2)cc1.Cl	6.7%
Cc1ccc(OCCNC(=O)c2cccc(Oc3ccc(C(F)(F)F)cc3[N+](=O)[O-])c2)cc1	12.3%
O=C(Nc1ccon1)c1ccc(OC2CCCC2)cc1	11.4%
Cc1c(NC(=S)NC(=O)c2ccccc2Cl)c(=O)n(-c2ccccc2)n1C	20.5%
Cc1ccc(C2SCC(=O)N2c2ccccc2)cc1 (centres unmarked)	10.8%
COc1ccc(C)cc1NC(=O)CSc1nnc(-c2ccccn2)n1Cc1ccco1	-3.86%
Oc1ccc2oc3c(c2c1C=NCc1ccncc1)CCCC3	9.54%
Cc1ccc(OCC(=O)Nc2nnc(S(=O)(=O)N3CCC(C)CC3)s2)cc1	17.4%
O=C(O)c1ccc(S(=O)(=O)c2ccc3c(c2)C(=O)N(NC(=O)c2ccccc2)C3=O)cc1	16.9%
O=C(C(Cc1ccccc1)n1cccc1)N1CCN(c2ncccn2)CC1 (centres unmarked)	6.86%
Cc1cc(Cl)c(OCCn2ccnc2)c(Br)c1.O=C(O)C(=O)O	8.07%
O=c1c2cc(Cl)ccc2nc(-c2ccc(Cl)c(Cl)c2)n1O	13.1%
COc1cc(C(=O)NCc2ccc3[nH]c(C)cc3c2)cc(OC)c1OC	8.57%
COCCn1c(=S)[nH]c2cc(OC)c(OC)cc2c1=O	3.58%
O=C(COC(=O)Cc1ccc(Cl)cc1)NCCc1ccccc1	6.75%
COc1cccc(S(=O)(=O)NCC(=O)Nc2ccc(C(C)(C)C)cc2)c1	9.36%
Cn1c(Cc2ccccc2)nnc1SCC(=O)c1cccs1	4.24%
CCCCC1=CC2=CC(=O)C(C)(OC(=O)CC)C(=O)C2=CN1CCN1CCOCC1 (centres unmarked)	10.2%
O=C(Nc1ccccc1C(F)(F)F)c1ccccn1	13.8%

Compound	hERG current change (%, negative = inhibition) at 1uM
CC1(OC(=O)c2ccc(Cl)nc2)C(=O)C=C2C=C3CCCN3C=C2C1=O (centres unmarked)	10.2%
Cc1cc(N2CCOCC2)nc2ccccc12	0.719%
Cc1cccc(N(C)Cc2nnc(-c3cccc(Br)c3)o2)c1	11.9%
CN(C)C(=O)c1coc2nc3ccccc3nc12	0.616%
Cc1nc(NC(=O)/C=C/c2ccccc2)sc1C(=O)N1CCCCC1	7.05%
O=C(NCCCNC(=O)c1cnccn1)c1ccc(Br)cc1	4.26%
COc1ccc(OC)c(CN2CCC(CO)(CCOc3ccccc3)CC2)c1	-30%
O=C(Cn1cnc(Cl)c1Cl)c1ccc(F)cc1	10.7%
Br.CCn1c(=N)n(CC(=O)C(C)(C)C)c2ccccc21	5.27%
CCOC(=O)c1ccc(NC(=S)Nc2cccc(C)n2)cc1	9.11%
O=c1[nH]c(=O)n(Cc2ccccc2)c2nc(-c3ccc(Oc4ccc(F)cc4)c([N+](=O)[O-])c3)n(CCO)c12	-1.84%
CSC1=N/C(=C\c2cccc(F)c2)C(=O)S1	13%
CCOc1ccccc1NC(=O)C12CC3CC(C1)CC(c1ccc(C)cc1)(C3)C2	-3.52%
Cc1ccc(C(=O)COC(=O)CN2C(=O)C3CC=CCC3C2=O)cc1[N+](=O)[O-] (centres unmarked)	13.5%
Cc1ccc2[nH]c(C(=O)N/N=C/c3ccc([N+](=O)[O-])cc3)c(C)c2c1	11.1%
CN(CC(=O)Nc1ccc(Cl)cc1)C(=O)CNC(=O)Cc1cccc2ccccc12	24%
COc1ccc(NC(=O)C2CCCN(C(=O)Nc3ccc(OC)cc3)C2)cc1 (centres unmarked)	-3.31%
COC(=O)c1c(NC(=O)CSc2nnc(CNc3ccc(Cl)cc3)o2)sc(C)c1C	-3.65%
CSCC[C@H](NC(=O)[C@H]1N2C(=O)c3ccccc3C2SC1(C)C)C(=O)NCc1ccncc1 (some centres unmarked)	2.82%
COc1cccc(C2c3[nH]c4ccccc4c3C[C@H]3C(=O)N(CCCO)CC(=O)N23)c1OC (some centres unmarked)	8.94%
N/C(=N\OC(=O)c1ccc2c(c1)OCO2)c1ccncc1	10.5%
CC1(C)CC(=O)C(C2C3=C(CC(C)(C)CC3=O)Oc3c(Br)cc(Br)cc32)=C(O)C1 (centres unmarked)	20.7%
